From the supplement of paper PMC3334620 come the findings set out here.

Over roughly 33,000 sequences, “E-score (-0.5 to 0.5)” has its median near -0.056; the highest 2% begin near 0.38. Some of the results follow.

The target in the assay is Stb4 (UniProt P50104). The assay can be described thus: PBM E-score (8-mer binding enrichment) (E-score (-0.5 to 0.5)); higher = stronger / more preferred TF binding; most listed sequences are background and not binding sites. The conditions noted are these: protein concentration: 200 nM; construct: GST-DNA-binding domain. Here is the method: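 Universal 'all 10-mer' protein binding microarrays (Agilent AMADID 015681) probed with GST-tagged S. cerevisiae TFs (full-length or DBD) made by in vitro transcription/translation (PURExpress), about 100-200 nM. Bound TF was detected with fluorescent anti-GST. Each ungapped 8-mer (which stands for itself and its reverse complement) is scored by the PBM enrichment score (E-score), a modified Wilcoxon-Mann-Whitney statistic from -0.5 to +0.5, computed with the Universal PBM Analysis Suite. Scale: above 0.35 generally sequence-specific binding.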
Turning to GCTGTAAA, the “PBM E-score” value was -0.263.
In the case of ATCGCAGC, the “PBM E-score” value was -0.00257.
CCGGCAGC: the “PBM E-score” value stood at 0.245.
With AGGCTCCG the figure was 0.26; with ATACACAA, -0.146.
As to AAACGGGG, the “PBM E-score” value was found to be 0.00631.
For GTCGCCAA, the “PBM E-score” value is -0.147.
In the case of GAATTTAA, the “PBM E-score” value is -0.0336.
Consider TCACAACA, for which the “PBM E-score” value was -0.129.
Regarding CACCAACA, the “PBM E-score” value was -0.221.
Turning to AGTGGCTC, the “PBM E-score” value was -0.032.
With CATCTGTA, the “PBM E-score” value is -0.0698.
Consider AAGAACTA, for which the “PBM E-score” value amounted to 0.0277.
For the sequence AGGTACAG, the “PBM E-score” value was -0.315.
With TAGAAACA, the “PBM E-score” value was -0.14.
In the case of TCGAGTCA, the “PBM E-score” value was -0.257.
With GATATTGA the figure was 0.044.
On to CGTCTTAG, for which the “PBM E-score” value was -0.201.
Turning to ATAGCAGG, the “PBM E-score” value was 0.0509.
Take CGCTGTAG: the “PBM E-score” value was -0.107.
With AACTCAGG the figure was -0.213.
Regarding GACCAGAC, the “PBM E-score” value is -0.119.
With ACGCGGAG, the “PBM E-score” value came to 0.207.
With CGGTCCCC, the “PBM E-score” value was 0.141.
For AGGAGATA, the “PBM E-score” value is -0.234.
As for GGGCCGTA, the “PBM E-score” value worked out at 0.124.
With ACCCAGAA the figure was -0.109.
For the sequence AAATTAGG, the “PBM E-score” value came out at 0.0961.
Turning to AGGACTAC, the “PBM E-score” value is -0.0483.
Regarding AATAATTC, the “PBM E-score” value is 0.142.
Regarding ATCCCTGC, the “PBM E-score” value is -0.0899.
With ATAATGAA the figure was -0.0859; with ATTTAGGA, -0.168.
With AAGAGTCC the figure was -0.0539; with CAGGCACC, -0.218; with GCCTCTGA, -0.229.
As for CTCGTCAG, the “PBM E-score” value was -0.183.
For the sequence ACATGCCA, the “PBM E-score” value is -0.109.
On to CCGCTCTC, for which the “PBM E-score” value was -0.00245.
For the sequence CGCCTTGC, the “PBM E-score” value was -0.128.
AGGATTTG: the “PBM E-score” value is -0.26.
For the sequence TGACGTAA, the “PBM E-score” value is -0.165.
As to CCGTCTGA, the “PBM E-score” value was -0.0369.
CCGTTTGA: the “PBM E-score” value is -0.0251.
With ACTTAAGA the figure was -0.0287.
For the sequence ACAATAGC, the “PBM E-score” value was -0.199.
On to GTGCGGCA, for which the “PBM E-score” value stood at 0.112.
As to CCGTAACG, the “PBM E-score” value was found to be 0.0401.
Regarding TCAGGAGA, the “PBM E-score” value is -0.225.
With GGAGAGCC the figure was -0.0678; with AACGTGTC, 0.0378.
As to GAGGTAAA, the “PBM E-score” value is 0.0411.
With GAGGGAAC the figure was 0.0772.
With ACGGTATA the figure was 0.0698.
Turning to ATCCTGCC, the “PBM E-score” value was -0.0122.
Turning to ACGTTGGG, the “PBM E-score” value was -0.262.
For GCTTACAC, the “PBM E-score” value is -0.157.
With CCGCTCAC, the “PBM E-score” value is -0.0195.
In the case of GGAACAAC, the “PBM E-score” value is 0.219.
With ATAGACGA the figure was -0.209.
With CCATGAAG the figure was -0.00665; with GCGCGCCC, -0.0608; with GCGCACTA, -0.124.
With CTACAACA, the “PBM E-score” value is -0.192.
With ACTATTGC the figure was -0.0334; with AAGTGAAA, -0.0829.
With AGGATGTC the figure was -0.0723; with GAAACATA, 0.0521; with CTGGCGGA, 0.0779.
On to CGATGACA, for which the “PBM E-score” value turned out to be 0.049.
With CTAGCCCA the figure was -0.248; with ATCAGCTA, -0.257.
As for CGCTCACA, the “PBM E-score” value was -0.15.
In the case of AGGACCTG, the “PBM E-score” value is -0.103.
With AGTTCAGA the figure was -0.188.
Take CCTATAGG: the “PBM E-score” value is -0.0469.
With CTTGCTGA the figure was -0.154; with CACCGCCC, 0.145.
Consider CGCGAGTC, for which the “PBM E-score” value is -0.034.
Consider CGAGTGTA, for which the “PBM E-score” value came out at 0.0256.
With ACACGGAT, the “PBM E-score” value was found to be 0.372.
With CTAGGACA the figure was -0.112; with ACAATACT, 0.0347; with AAGCTTCA, -0.0472.
On to CTTAATCA, for which the “PBM E-score” value was -0.0261.
Consider ACGACATA, for which the “PBM E-score” value was -0.29.
